Measured values published in the supplement of paper PMC3334620.
Whole data set: some 33,000 sequences, median “E-score (-0.5 to 0.5)” near -0.016, cut for the highest 2% near 0.31. The list shows a part of the results.

target: Cst6 (UniProt P40535); experiment: PBM E-score (8-mer binding enrichment) (E-score (-0.5 to 0.5)); higher = stronger / more preferred TF binding; most listed sequences are background and not binding sites; settings: protein concentration: 200 nM; construct: GST-DNA-binding domain
How it was run: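 PURExpress in vitro transcription/translation supplied GST-tagged yeast transcription factors, either full-length or DNA-binding domain. Applied at about 100-200 nM to universal all-10-mer Agilent arrays double-stranded by primer extension, the bound protein was detected with fluorescent anti-GST. E-scores, modified Wilcoxon-Mann-Whitney statistics, were given by the Universal PBM Analysis Suite to ungapped eight-base words pooled with their reverse complements after masliner normalisation.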

Row | Sequence | PBM E-score
1 | AGAAAAGC | 0.0634
2 | GACGAGAA | 0.242
3 | GGCGCACA | 0.00702
4 | CGTAAAGC | -0.114
5 | TAATATCA | 0.319
6 | AGGACACT | -0.246
7 | ACCGAGCC | -0.0469
8 | TACTAGGA | -0.202
9 | CCAATCGG | -0.0323
10 | GGGTAGCA | -0.125
11 | TCACCAGA | -0.0527
12 | CCCCGCTA | -0.105
13 | GGTCGTTA | -0.00422
14 | AGAGACCG | -0.277
15 | GCCCAATA | -0.0158
16 | ATTGTCAC | 0.219
17 | CCTAACCA | 0.0122
18 | GGGACGAC | -0.17
19 | AGCGACGA | -0.109
20 | TACCATAA | 0.194
21 | TACAATAA | 0.17
22 | GTGCCACA | -0.0104

Row | Sequence | PBM E-score
23 | ATGTTGCA | 0.0388
24 | AAAGGTCA | -0.0478
25 | ACCCCCGG | -0.297
26 | GGAACACA | -0.114
27 | AAGAGCGC | 0.0801
28 | CGTTAAAA | -0.0836
29 | ACTATCCC | -0.222
30 | CGGGTAAG | -0.212
31 | CTTGGAGC | -0.246
32 | GCACCTCC | -0.262
33 | CATGGAGC | -0.137
34 | GCCGTATA | 0.367
35 | CATCCGAA | 0.0751
36 | CGGCCGTC | -0.0527
37 | CACTGCCC | -0.183
38 | AGGCGGCG | 0.204
39 | AAAGCGGA | 0.0107
40 | AAGGGGGC | -0.279
41 | AGTGAAGC | -0.0533
42 | GGTAAACA | 0.169
43 | AAATCTGG | 0.0145
44 | AGCTGAAC | -0.295

Row | Sequence | PBM E-score
45 | AGTTCCCC | -0.0931
46 | AAGTAAGG | 0.036
47 | TACTCGAA | 0.167
48 | AAAGCATC | -4e-05
49 | ATGGGGAA | -0.0399
50 | GTGATCAC | -0.0135
51 | AATCGACC | -0.0526
52 | AATGGGTA | 0.0645
53 | GCCCCTCC | -0.214
54 | CCTGCATA | -0.0878
55 | CCCAGTAC | -0.202
56 | AGGACTTA | -0.169
57 | AACGGTAT | 0.0884
58 | CGCGGATC | -0.0565
59 | CGCACAGC | -0.0292
60 | CCCGCGTC | 0.104
61 | GAGTAGCC | -0.145
62 | TCCTTTAA | -0.0494
63 | CGAGTGAC | 0.115
64 | GGGAGACA | -0.168
65 | AATGTGCC | 0.0547
66 | GCGTTACC | -0.0944

Row | Sequence | PBM E-score
67 | CCGCGAGC | -0.169
68 | GTGTCGCA | 0.0474
69 | GCGACACA | -0.0743
70 | CACCAGTC | -0.206
71 | ATCGTAGG | -0.153
72 | ATATAATG | 0.252
73 | ACTGTGGG | -0.0161
74 | AGATTGCA | 0.0345
75 | CGTAGATA | 0.156
76 | CCGGGCAA | -0.282
77 | CTTCAGGC | -0.131
78 | GAGGTGTA | 0.0415
79 | CAAGGGTG | 0.0508
80 | GGAACGAA | -0.0214
81 | ACCCCTTA | -0.118
82 | GTGTAAGA | 0.0158
83 | CTACCGTC | -0.206
84 | CTAGAGAG | -0.196
85 | AACGGATC | 0.215
86 | CGATTAGC | -0.0851
87 | ATCATTCA | 0.27
88 | CGCTAGAG | -0.0884

Row | Sequence | PBM E-score
89 | TAAGGTAA | 0.114
90 | GCTGCAGC | -0.209
91 | GCGGATTA | -0.0144
92 | CGGGTTAC | 0.034
93 | ACTTTGCT | -0.0941
94 | CGTCATAC | 0.481
95 | GAGAGAGA | 0.0046
96 | GCCTTTAA | -0.00012
97 | AATTCGGC | -0.107
98 | CTGCGCGA | -0.038
99 | ATATGTGG | 0.14
100 | AGACAACT | 0.0492
101 | GCTTCGAA | -0.0925
102 | AGTAATAC | -0.0264
103 | AAAGTAAC | 0.105
104 | ACCTCTAG | -0.111
105 | AGTGAATA | 0.179
106 | GGCGCAAC | -0.00604
107 | ACGCCCAA | -0.0666
108 | CGGCTGGA | -0.227
109 | AACACACC | 0.0799
